Laboratory results as given in PubChem BioAssay (NCATS).
Inconclusive results, whose numbers are uncertain, are shown with a selection of clear calls. For some of these results: Potencies beside an inconclusive call are fits to weak or partial responses and may not hold up. Active and inactive are the calls of the source. Unless noted, the call rests on the fitted dose curve; in most records, active means well fitted curve in the direction sought with a large enough effect; inconclusive means small, poorly fitted or top-dose-only effect, or another doubt; inactive means no such curve, though single readings can be large; an effect the other way counts as inactive or inconclusive.

What was measured:
[1] = target: Nuclear receptor subfamily 1 group I member 3 (Homo sapiens) (UniProt Q14994); experiment: Primary qHTS for antagonist of constitutive androstane receptor (CAR) against the NCATS DSHEA and TCM libraries (AID 1794836); conditions: CAR reporter cell assay, antagonist mode, luciferase; series mostly up to 40 µM; further: potency means the concentration at half of the fitted maximal effect
How it was run: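 HepG2 cells stably carrying hCAR and a CYP2B6 luciferase reporter (2,500 cells/well) attached for 5 h, then received compounds with 48 uM CITCO for 24 h at 37C. ONE-Glo luminescence read antagonism; CellTiter-Fluor (405/540 nm) gave viability.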

[2] = target: Nuclear receptor subfamily 1 group I member 3 (Homo sapiens) (UniProt Q14994); experiment: Primary qHTS for agonist of constitutive androstane receptor (CAR) against the NCATS DSHEA and TCM libraries (AID 1794839); conditions: CAR agonist reporter cells, qHTS luminescence, CAR antagonist co-added at 0.75 µM; series mostly up to 5 µM;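 further: HepG2 cells expressing human CAR with a CYP2B6 reporter plus PK11195 antagonist; 0% is about no effect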
How it was run: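 Agonist mode in presence of hCAR antagonist PK11195 (0.75 µM final): test substances, 24 h, 37 °C, on HepG2-CYP2B6-hCAR cells. Same-well readouts: fluorescence viability, then ONE-Glo luminescence; CITCO as reference agonist.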

[3] = target: Cytochrome P450 2C19 (Homo sapiens) (UniProt P33261); experiment: qHTS for inhibitors of CYP2C19 against the NCATS DSHEA and TCM libraries (AID 1919974); conditions: CYP2C19 enzyme inhibition, luminescence qHTS; series mostly up to 34.1 µM;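 further: luminescence from luciferin released by CYP2C19 oxidation of a pro-luciferin substrate; on the % scale 0 is the no-effect control and ±100 the full control effect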
How it was run: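 Read-out is luminescence after P450-Glo detection (30 min, RT). Before that: 15 min compound–enzyme preincubation, then 30-45 min reaction with 1x NADPH regeneration solution, substrate concentration isoform-specific.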

[4] = Cell Viability - LYMP2-004 (AID 966); conditions: LYMP2-004 lymphoblastoid cell viability, qHTS; series mostly up to 92.2 µM; further: potency means the concentration at half of the fitted maximal effect; nearly all actives have a fitted effect of over 65% in size
How it was run: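 Cells seeded 2500/well, rested 5 hr at 37 C, dosed across a concentration series, incubated 24 hr at 37 C, then CellTiter-Glo added for 30 min at room temperature and luminescence read. Hill fitting gave AC50.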

[5] = Cell Viability - LYMP2-025 (AID 976); conditions: LYMP2-025 lymphoblastoid cell viability; further: potency means the concentration at half of the fitted maximal effect
How it was run: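 Seed 2500 LYMP2-025 cells/well; 5 hr at 37 C; add compound; 24 hr at 37 C; add CellTiter-Glo; 30 min RT; read luminescence. AC50 from Hill-modelled concentration-response.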

[6] = Cell Viability - LYMP2-014 (AID 983); conditions: LYMP2-014 lymphoblastoid cells, viability qHTS; series mostly up to 92.2 µM; further: nearly all actives have a fitted effect of over 50% in size; further: potency means the concentration at half of the fitted maximal effect
How it was run: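 Luminescent ATP signal (CellTiter-Glo, 30 min at room temperature) serves as the viability read-out after 24 hr compound exposure at 37 C. Cells were seeded at 2500 per well and settled 5 hr beforehand.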

[7] = Cell Viability - LYMP2-016 (AID 984); conditions: LYMP2-016 lymphoblastoid cell viability, qHTS; series mostly up to 92.2 µM;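 further: cells exposed to compound for 24 hours at 37 °C; nearly all actives have a fitted effect of over 55% in size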; further: potency means the concentration at half of the fitted maximal effect
How it was run: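 Cytotoxicity was scored by luminescent ATP content (CellTiter-Glo) after 24 h compound exposure at 37 C of a human lymphoblastoid line at 2500 cells/well. Concentration-response data were fitted to the Hill equation for AC50.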

[8] = target: Glucocorticoid receptor (Homo sapiens) (UniProt P04150); experiment: qHTS assay for small molecule antagonists of glucocorticoid receptor signaling (AID 588533; active means well fitted inhibition curve with a large enough effect in the signal ratio, with a control signal flat, not every such curve was filed as active; inconclusive means small, poorly fitted or top-dose-only effect, or effect the other way, or a change in a side signal; the % refers to the signal ratio;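 further: cells stimulated with 2 nM dexamethasone as agonist; on the % scale 0 is the no-effect control and ±100 the full control effect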); conditions: HeLa MMTV-bla, GRE beta-lactamase ratio, antagonist mode, 18 h; activity change, negative = inhibition: at 76.8 µM (top of the series)
[9] = target: Endonuclease 4 (Escherichia coli (strain K12)) (UniProt P0A6C1); experiment: Counterscreen for APE1 Inhibitors: qHTS Validation Assay for Inhibitors of Endonuclease IV (AID 1708); further: potency means the concentration at half of the fitted maximal effect; conditions: E. coli endonuclease IV, DNA cleavage fluorescence; series mostly up to 57.1 µM
How it was run: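 Concentration-response counterscreen run identically to the APE1 assay: 15 min room-temperature preincubation of 2 nM enzyme with compound, reaction started with 50 nM quenched abasic DNA, progress taken from kinetic fluorescence.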

[10] = qHTS for differential inhibitors of proliferation of Plasmodium falciparum line GB4 (AID 1816); conditions: Potency: Plasmodium falciparum GB4 proliferation inhibition; series mostly up to 28.7 µM;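 further: potency means the concentration at half of the fitted maximal effect; parasite growth measured after 72 h incubation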
[11] = qHTS for differential inhibitors of proliferation of Plasmodium falciparum line D10 (AID 1877); conditions: series mostly up to 28.7 µM;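 further: potency means the concentration at half of the fitted maximal effect; parasites grown with compound for 72 h before DNA staining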
[12] = qHTS for differential inhibitors of proliferation of Plasmodium falciparum line W2 (AID 1883); conditions: Potency: Plasmodium falciparum W2 proliferation inhibition; series mostly up to 28.7 µM;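 further: potency means the concentration at half of the fitted maximal effect; parasites grown with compound for 72 h before lysis and staining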
[13] = target: Ferritin light chain (Equus caballus) (UniProt P02791); experiment: qHTS Validation Assay for Identification of Novel General Anesthetics (AID 2323); conditions: horse apoferritin, anesthetic-site fluorescent probe displacement; series mostly up to 76.9 µM; further: potency means the concentration at half of the fitted maximal effect; on activity change, negative = inhibition: on the % scale 0 is the no-effect control and ±100 the full control effect
How it was run: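 Competitive displacement of the profluorescent anesthetic 1-AMA (50% saturated, PBS) from 10 uM apoferritin, 10 min, room temperature. Activity is normalized 380/535 nm fluorescence; concentration-response fitted with a four-parameter Hill equation.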

[14] = target: RecQ-like DNA helicase BLM (Homo sapiens) (UniProt P54132); experiment: qHTS Validation Assay for Inhibitors of Bloom's syndrome helicase (BLM) (AID 2364); conditions: BLM helicase DNA unwinding, fluorescence, in vitro; series mostly up to 57.1 µM;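 further: plate controls were DMSO vehicle for no effect and enzyme-free control for full effect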
How it was run: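 BLM 50 nM in 25 mM Tris-HCl pH 8.0, 5 mM NaCl, 2 mM MgCl2, 1 mM DTT, 0.01% Tween-20, 2.5 ug/ml poly(dI-dC); 15 min cpd preinc, RT. Start: 200 nM forked DNA + 2 mM ATP (final). TAMRA read, 2 reads 2 h apart.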

[15] = target: ATP-dependent 6-phosphofructokinase (Trypanosoma brucei brucei) (UniProt O15648); experiment: qHTS Validation Assay to Find Inhibitors of T. brucei phosphofructokinase (AID 485368); further: potency means the concentration at half of the fitted maximal effect; conditions: T. brucei PFK enzyme assay, qHTS 7-point titration; activity change, negative = inhibition: at 57.5 µM (top of the series); series mostly up to 57.5 µM
How it was run: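 Compounds (up to 57 uM, titration series) were pinned into substrate buffer, then 1.25 nM PFK added; after 45 min at room temperature, ADP product was quantified by ADP-Glo luminescence and concentration-response curves fitted.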

[16] = Quantitative high throughput screen for delayed death inhibitors of the malarial parasite plastid, 96 hour incubation (AID 488745); conditions: Plasmodium falciparum growth; series mostly up to 28.7 µM; further: potency means the concentration at half of the fitted maximal effect; nearly all actives have a fitted effect of over 70% in size
How it was run: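 Infected erythrocytes were added to compound in Albumax-supplemented RPMI 1640 at 0.1% parasitemia and 2% hematocrit (final), incubated 96 h at 37 C under 5% CO2, then luciferase reagent was added and luminescence measured.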

[17] = qHTS for Inhibitors of ATXN expression: Validation of Cytotoxic Assay (AID 588349); conditions: cytotoxicity counter-screen for ATXN expression inhibitors, cell viability; series mostly up to 57.1 µM; further: potency means the concentration at half of the fitted maximal effect
How it was run: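 Read-out: ATP-based luminescence (CellTiter Glo) reflecting viability of HEK293 cells after 72 hr incubation at 37 degrees C with a concentration series of each compound.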

[18] = qHTS for Inhibitors of ATXN expression: Validation (AID 588378); conditions: cell-based ATXN2 expression reporter assay, luminescence; series mostly up to 57.1 µM; further: nearly all actives have a fitted effect of over 75% in size; further: potency means the concentration at half of the fitted maximal effect; on activity change, negative = inhibition: on the % scale 0 is the no-effect control and ±100 the full control effect
How it was run: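 Luciferase luminescence (Bright-Glo) from an ATXN2-FFLuc HEK293 line after 24 h compound exposure at 37 °C, preceded by a CellTiter-Fluor fluorescence viability read. Serial dilutions of a reference ATXN2 inhibitor and a luciferase inhibitor served as controls.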

[19] = qHTS to identify inhibitors of the type 1 interferon - major histocompatibility complex class I in skeletal muscle: primary screen against the NCATS LOPAC collection (AID 1347405); conditions: iHSKM muscle cells, IFN-b-induced MHC-I HiBiT luminescence, 24 h; activity change, negative = inhibition: at 45.9 µM (top of the series);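 further: lytic HiBiT luminescence reporting HLA-B protein level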; further: potency means the concentration at half of the fitted maximal effect
How it was run: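 Luminescence from HiBiT fused to endogenous HLA-B in CRISPR-engineered human myoblasts served as the read-out. Cells received 4.0 ng/ml IFN-beta plus compound (seven concentrations, 1:4.3 steps, highest 46 uM final) for 24 hrs before lytic detection.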

[20] = target: Cytochrome P450 2C9 (Homo sapiens) (UniProt P11712); experiment: Cytochrome P450 family 2 subfamily C member 9 (CYP2C9) small molecule antagonists: luciferase biochemical (cell-free) qHTS assay (AID 1645842; active means well fitted curve in the direction sought with a large enough effect in the repeat runs; inconclusive means weak or mixed curves; inactive means no such curve, though single readings can be large; an effect the other way counts as inactive or inconclusive; further: nearly all actives have a fitted effect of over 55% in size; further: potency means the concentration at half of the fitted maximal effect); conditions: P450-Glo CYP2C9 enzyme assay, luciferin luminescence; series mostly up to 57.4 µM
How it was run: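 Luminescence, after 20 min with luciferin detection reagent, reflected CYP2C9 turnover during a 1 h NADPH-driven reaction at 37C. Enzyme-substrate mix contained 0.4% bovine serum albumin and was preincubated with compound 10 min at room temperature.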
Tags describe the fitted curve by direction and shape.

UniProt P54132, sequence (P54132 whole entry, looked up): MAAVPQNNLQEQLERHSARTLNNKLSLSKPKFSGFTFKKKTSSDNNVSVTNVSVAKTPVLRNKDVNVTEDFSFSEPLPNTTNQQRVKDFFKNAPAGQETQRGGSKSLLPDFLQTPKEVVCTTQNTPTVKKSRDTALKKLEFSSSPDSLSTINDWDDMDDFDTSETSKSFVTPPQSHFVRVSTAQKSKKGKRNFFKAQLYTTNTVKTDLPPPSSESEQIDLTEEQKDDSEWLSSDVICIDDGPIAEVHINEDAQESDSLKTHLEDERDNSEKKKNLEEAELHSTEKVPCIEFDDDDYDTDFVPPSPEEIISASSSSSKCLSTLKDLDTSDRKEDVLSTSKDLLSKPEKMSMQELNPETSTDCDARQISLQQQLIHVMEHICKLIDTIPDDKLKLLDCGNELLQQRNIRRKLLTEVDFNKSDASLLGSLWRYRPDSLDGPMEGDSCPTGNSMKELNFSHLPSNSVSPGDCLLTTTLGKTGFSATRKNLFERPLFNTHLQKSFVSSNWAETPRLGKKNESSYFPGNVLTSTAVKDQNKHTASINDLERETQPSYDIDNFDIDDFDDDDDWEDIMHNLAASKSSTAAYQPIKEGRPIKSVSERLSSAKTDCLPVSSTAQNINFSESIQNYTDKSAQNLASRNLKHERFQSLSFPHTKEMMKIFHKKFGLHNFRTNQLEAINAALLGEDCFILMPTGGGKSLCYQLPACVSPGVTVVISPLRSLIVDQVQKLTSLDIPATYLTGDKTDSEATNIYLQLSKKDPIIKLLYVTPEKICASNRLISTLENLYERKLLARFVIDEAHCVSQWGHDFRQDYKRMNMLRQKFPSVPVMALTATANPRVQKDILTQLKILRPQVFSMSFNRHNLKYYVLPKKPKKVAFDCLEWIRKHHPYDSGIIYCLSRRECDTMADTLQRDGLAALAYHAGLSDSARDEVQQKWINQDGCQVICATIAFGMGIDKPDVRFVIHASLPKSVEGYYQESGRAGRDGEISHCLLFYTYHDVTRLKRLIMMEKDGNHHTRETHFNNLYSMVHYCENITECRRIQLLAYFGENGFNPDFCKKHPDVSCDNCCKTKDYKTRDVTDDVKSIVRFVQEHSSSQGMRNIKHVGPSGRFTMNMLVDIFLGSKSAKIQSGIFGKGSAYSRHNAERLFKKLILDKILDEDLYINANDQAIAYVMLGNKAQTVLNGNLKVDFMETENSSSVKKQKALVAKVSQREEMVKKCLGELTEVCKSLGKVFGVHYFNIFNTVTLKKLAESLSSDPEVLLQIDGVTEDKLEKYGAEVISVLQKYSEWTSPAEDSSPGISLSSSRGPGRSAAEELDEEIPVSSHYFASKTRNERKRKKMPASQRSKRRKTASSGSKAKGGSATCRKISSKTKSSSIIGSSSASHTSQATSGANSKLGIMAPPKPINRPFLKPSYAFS
UniProt Q14994, sequence (Q14994 whole entry, looked up): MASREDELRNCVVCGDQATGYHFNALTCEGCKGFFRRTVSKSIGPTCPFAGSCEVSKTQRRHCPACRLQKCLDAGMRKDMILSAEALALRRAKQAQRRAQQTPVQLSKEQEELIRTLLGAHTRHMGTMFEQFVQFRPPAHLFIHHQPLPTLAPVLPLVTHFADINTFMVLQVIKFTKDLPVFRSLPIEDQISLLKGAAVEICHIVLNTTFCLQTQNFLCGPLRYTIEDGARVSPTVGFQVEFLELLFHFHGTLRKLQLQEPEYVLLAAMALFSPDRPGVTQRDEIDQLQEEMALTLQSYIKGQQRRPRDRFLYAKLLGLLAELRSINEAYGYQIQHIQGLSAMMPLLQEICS
UniProt O15648, sequence (O15648 whole entry, looked up): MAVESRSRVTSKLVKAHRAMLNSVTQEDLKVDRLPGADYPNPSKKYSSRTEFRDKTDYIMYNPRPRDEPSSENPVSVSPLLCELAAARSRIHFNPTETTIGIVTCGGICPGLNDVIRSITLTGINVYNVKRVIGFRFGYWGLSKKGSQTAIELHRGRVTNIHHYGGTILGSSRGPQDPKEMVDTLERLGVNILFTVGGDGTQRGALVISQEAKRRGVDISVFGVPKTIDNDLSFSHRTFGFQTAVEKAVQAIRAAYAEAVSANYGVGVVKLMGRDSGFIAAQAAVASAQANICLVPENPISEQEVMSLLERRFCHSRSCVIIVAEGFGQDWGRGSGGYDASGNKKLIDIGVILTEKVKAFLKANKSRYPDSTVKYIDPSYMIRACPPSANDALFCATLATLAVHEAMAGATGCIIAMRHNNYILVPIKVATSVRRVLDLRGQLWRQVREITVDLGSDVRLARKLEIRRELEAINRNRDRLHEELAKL
UniProt P11712, sequence (P11712 whole entry, looked up): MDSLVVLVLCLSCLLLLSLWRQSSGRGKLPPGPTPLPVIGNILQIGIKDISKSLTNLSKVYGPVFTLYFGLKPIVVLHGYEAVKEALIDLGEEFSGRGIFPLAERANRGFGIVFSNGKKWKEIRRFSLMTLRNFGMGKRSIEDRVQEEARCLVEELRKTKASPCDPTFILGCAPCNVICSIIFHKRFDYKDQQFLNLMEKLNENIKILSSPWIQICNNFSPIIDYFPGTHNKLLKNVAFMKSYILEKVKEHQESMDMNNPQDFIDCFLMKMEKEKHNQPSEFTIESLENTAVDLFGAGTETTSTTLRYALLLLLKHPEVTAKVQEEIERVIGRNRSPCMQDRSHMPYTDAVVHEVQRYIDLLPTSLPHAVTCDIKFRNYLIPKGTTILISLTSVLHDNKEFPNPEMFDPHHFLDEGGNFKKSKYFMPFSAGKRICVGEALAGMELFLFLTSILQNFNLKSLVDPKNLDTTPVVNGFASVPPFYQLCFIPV
UniProt P02791, sequence (P02791 whole entry, looked up): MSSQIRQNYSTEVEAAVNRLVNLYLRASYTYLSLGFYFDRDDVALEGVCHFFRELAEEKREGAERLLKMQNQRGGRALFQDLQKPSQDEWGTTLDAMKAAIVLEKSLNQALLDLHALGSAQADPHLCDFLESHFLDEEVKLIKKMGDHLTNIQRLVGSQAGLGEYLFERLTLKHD
UniProt P33261, sequence (P33261 whole entry, looked up, canonical isoform): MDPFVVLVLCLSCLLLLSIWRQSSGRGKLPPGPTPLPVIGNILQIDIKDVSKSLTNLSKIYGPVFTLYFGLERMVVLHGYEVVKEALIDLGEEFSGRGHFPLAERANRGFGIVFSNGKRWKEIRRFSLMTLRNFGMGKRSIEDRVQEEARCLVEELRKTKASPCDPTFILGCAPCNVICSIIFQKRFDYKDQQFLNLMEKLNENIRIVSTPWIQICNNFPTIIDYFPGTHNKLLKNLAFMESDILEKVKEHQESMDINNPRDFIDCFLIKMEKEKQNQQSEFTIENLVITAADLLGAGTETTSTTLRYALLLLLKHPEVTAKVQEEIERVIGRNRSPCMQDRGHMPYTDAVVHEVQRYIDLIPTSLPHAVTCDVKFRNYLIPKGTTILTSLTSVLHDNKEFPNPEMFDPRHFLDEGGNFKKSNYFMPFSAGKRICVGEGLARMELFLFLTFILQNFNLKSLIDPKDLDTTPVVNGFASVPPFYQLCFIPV

CCCCC/C=C\C/C=C\C/C=C\CCCCC(=O)O
Potency [1]: inconclusive: 0.417 µM [inhibitor, full curve] | Potency [2]: inactive | activity change, negative = inhibition [3]: inactive: 19.3% [at 4.27 µM]

Cc1ccccc1
Potency [4]: inconclusive: 79.4 µM [rising, single point] | Potency [5]: inconclusive: 79.4 µM [cytotoxic, single point]

NCCN
Potency [6]: inactive

C[C@H](CCC(=O)O)[C@H]1CC[C@H]2[C@@H]3[C@H](O)C[C@@H]4C[C@H](O)CC[C@]4(C)[C@H]3C[C@H](O)[C@]12C
Potency [7]: inactive | Potency [8]: inactive

O=c1n(CC2CO2)c(=O)n(CC2CO2)c(=O)n1CC1CO1 (configuration not stated)
Potency [4]: inconclusive: 31.6 µM [cytotoxic, partial curve, poor fit] | Potency [5]: inconclusive: 39.8 µM [cytotoxic, partial curve, poor fit] | Potency [6]: inconclusive: 31.6 µM [cytotoxic, partial curve] | Potency [7]: active: 31.6 µM | activity change, negative = inhibition [8]: inconclusive: -6.17%

COc1cccc2c1[C@@H]1CN(CCCCn3c(=O)[nH]c4c(sc5ncc(-c6ccccc6)nc54)c3=O)C[C@@H]1CO2
Potency [9]: inconclusive: 11.2 µM [inhibitor, full curve, poor fit] | Potency [10]: inconclusive: 17.8 µM [inhibitor, single point] | Potency [11]: inconclusive: 15.8 µM [inhibitor, single point] | Potency [12]: inconclusive: 10 µM [inhibitor, single point] | Potency [13]: inconclusive: 3.55 µM [inhibitor, full curve] | Potency [14]: inactive | Potency [15]: inconclusive: 0.0095 µM [activator, full curve, poor fit] | Potency [16]: inconclusive: 18.5 µM [inhibitor, single point] | Potency [17]: inconclusive: 28.2 µM [cytotoxic, partial curve, poor fit] | Potency [18]: inconclusive: 14.1 µM [inhibitor, partial curve] | Potency [19]: inconclusive: 31.6 µM [inhibitor, single point]

NC(N)=NCc1cccc(I)c1
Potency [9]: inconclusive: 5.01 µM [inhibitor, full curve, poor fit] | Potency [10]: inconclusive: 10 µM [inhibitor, partial curve] | Potency [11]: inconclusive: 11.2 µM [inhibitor, partial curve] | Potency [12]: active: 10 µM | Potency [13]: inactive | Potency [14]: inactive | Potency [15]: inconclusive: 4.78 µM [falling, partial curve] | Potency [16]: inconclusive: 0.0104 µM [inhibitor, full curve, poor fit] | Potency [17]: inactive | Potency [18]: inactive | Potency [19]: inactive

NC(=O)c1cc[n+](CC2=C(C(=O)[O-])N3C(=O)[C@@H](NC(=O)Cc4cccs4)[C@H]3SC2)cc1
Potency [20]: inactive

Cc1[nH]cnc1C[C@H]1CCc2c(C)c3ccccc3n2C1=O
Potency [20]: active: 0.19 µM
